Measured values from the supplement of paper PMC4604168 (melanoma cell lines).
Some of the results follow. Many values rest on one well or one pass, so single values are uncertain.

system: LB2518-MEL; assay: cell count relative to DMSO control; melanoma cells; higher = more viable cells; conditions: library dose: low library concentration; 72 h
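Further: cell number obtained by counting DAPI-stained nuclei in high-throughput microscope images with image analysis software, screen run in 1,536-well plates.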

| Compound | cell count |
| --- | --- |
| COc1ccc(C2=N[C@@H](c3ccc(Cl)cc3)[C@@H](c3ccc(Cl)cc3)N2C(=O)N2CCNC(=O)C2)c(OC(C)C)c1 [Nutlin-3] + C/C(O)=C(\C#N)C(=O)Nc1cc(Br)ccc1Br [LFM-A13] (first compound 0.1 µM, partner dose 2 µM) | 81% |
| CCCCCCCCCCCCCCCCCCOP(=O)([O-])OC1CC[N+](C)(C)CC1 [Perifosine] + O=C(Oc1ccc([N+](=O)[O-])cc1)N1CCC(C(O)(c2ccc3c(c2)OCO3)c2ccc3c(c2)OCO3)CC1 [JZL184] (first compound 0.4 µM, partner dose 1 µM) | 123% |
| CCN(CC)CCNC(=O)c1c(C)[nH]c(/C=C2\C(=O)Nc3ccc(F)cc32)c1C [sunitinib] + Cc1cc(SCc2sc(-c3ccc(C(F)(F)F)c(F)c3)nc2C)ccc1OCC(=O)O [GW0742] (first compound 0.4 µM, partner dose 2 µM) | 114% |
| Nc1nc(F)nc2c1ncn2[C@@H]1O[C@H](CO)[C@@H](O)[C@@H]1O [fludarabine] + C/C(O)=C(\C#N)C(=O)Nc1cc(Br)ccc1Br [LFM-A13] (first compound 0.2 µM, partner dose 2 µM) | 109% |
| Cc1cc(Nc2cc(N3CCN(C)CC3)nc(/C=C/c3ccccc3)n2)n[nH]1 + C/C(O)=C(\C#N)C(=O)Nc1cc(Br)ccc1Br [LFM-A13] (first compound 0.04 µM, partner dose 2 µM) | 81.1% |
| NC1(c2ccc(-c3nc4ccn5c(=O)[nH]nc5c4cc3-c3ccccc3)cc2)CCC1 + Cc1cc(SCc2sc(-c3ccc(C(F)(F)F)c(F)c3)nc2C)ccc1OCC(=O)O [GW0742] (first compound 0.4 µM, partner dose 2 µM) | 88.6% |
| Nc1ncn([C@H]2C[C@H](O)[C@@H](CO)O2)c(=O)n1 [decitabine] + C/C(O)=C(\C#N)C(=O)Nc1cc(Br)ccc1Br [LFM-A13] (first compound 0.1 µM, partner dose 2 µM) | 87% |
| CCCCCCCCc1ccc(CCC(N)(CO)CO)cc1 [fingolimod] + C/C(O)=C(\C#N)C(=O)Nc1cc(Br)ccc1Br [LFM-A13] (first compound 2 µM, partner dose 2 µM) | 94.9% |
| CC[C@]1(O)C[C@H]2CN(CCc3c([nH]c4ccccc34)[C@@](C(=O)OC)(c3cc4c(cc3OC)N(C=O)[C@H]3[C@@](O)(C(=O)OC)[C@H](OC(C)=O)[C@]5(CC)C=CCN6CC[C@]43[C@@H]65)C2)C1 [vincristine] + Cc1cc(SCc2sc(-c3ccc(C(F)(F)F)c(F)c3)nc2C)ccc1OCC(=O)O [GW0742] (first compound 0.0001 µM, partner dose 2 µM) | 94.1% |
| Cc1ccc(Nc2nccc(N(C)c3ccc4c(C)n(C)nc4c3)n2)cc1S(N)(=O)=O [Pazopanib] + C/C(O)=C(\C#N)C(=O)Nc1cc(Br)ccc1Br [LFM-A13] (first compound 0.4 µM, partner dose 2 µM) | 70.8% |
| COc1cc([C@@H]2c3cc4c(cc3[C@@H](O[C@@H]3O[C@@H]5CO[C@@H](C)O[C@H]5[C@H](O)[C@H]3O)[C@H]3COC(=O)[C@H]23)OCO4)cc(OC)c1O [etoposide] + Cc1cc(SCc2sc(-c3ccc(C(F)(F)F)c(F)c3)nc2C)ccc1OCC(=O)O [GW0742] (first compound 0.02 µM, partner dose 2 µM) | 103% |
| Cc1cc(Nc2cc(N3CCN(C)CC3)nc(/C=C/c3ccccc3)n2)n[nH]1 + Cc1cc(SCc2sc(-c3ccc(C(F)(F)F)c(F)c3)nc2C)ccc1OCC(=O)O [GW0742] (first compound 0.04 µM, partner dose 2 µM) | 116% |
| Cn1cnc2c(F)c(Nc3ccc(Br)cc3Cl)c(C(=O)NOCCO)cc21 [selumetinib] + C/C(O)=C(\C#N)C(=O)Nc1cc(Br)ccc1Br [LFM-A13] (first compound 0.015 µM, partner dose 2 µM) | 62.1% |
| NC(=O)c1ccc(N(C(N)=O)c2c(F)cccc2F)nc1-c1ccc(F)cc1F + C/C(O)=C(\C#N)C(=O)Nc1cc(Br)ccc1Br [LFM-A13] (first compound 0.4 µM, partner dose 2 µM) | 99.7% |
| O=C(O)[C@@H]1[O][Sb](=[O])([O][Sb]2(=[O])[O][C@H]([C@H](O)CO)[C@H](O)[C@H](C(=O)O)[O]2)[O][C@H]([C@H](O)CO)[C@@H]1O (stereo not given in full) [stibogluconate] + O=C(Oc1ccc([N+](=O)[O-])cc1)N1CCC(C(O)(c2ccc3c(c2)OCO3)c2ccc3c(c2)OCO3)CC1 [JZL184] (first compound 2 µM, partner dose 1 µM) | 93.6% |
| Cc1ccc(Nc2nccc(N(C)c3ccc4c(C)n(C)nc4c3)n2)cc1S(N)(=O)=O [Pazopanib] + O=C(Oc1ccc([N+](=O)[O-])cc1)N1CCC(C(O)(c2ccc3c(c2)OCO3)c2ccc3c(c2)OCO3)CC1 [JZL184] (first compound 0.4 µM, partner dose 1 µM) | 97% |
| CNC(=O)c1cc(Oc2ccc(NC(=O)Nc3ccc(Cl)c(C(F)(F)F)c3)cc2)ccn1 [sorafenib] + O=C(Oc1ccc([N+](=O)[O-])cc1)N1CCC(C(O)(c2ccc3c(c2)OCO3)c2ccc3c(c2)OCO3)CC1 [JZL184] (first compound 0.4 µM, partner dose 1 µM) | 109% |
| CNC(=O)c1cc(Oc2ccc(NC(=O)Nc3ccc(Cl)c(C(F)(F)F)c3)cc2)ccn1 [sorafenib] + C/C(O)=C(\C#N)C(=O)Nc1cc(Br)ccc1Br [LFM-A13] (first compound 0.4 µM, partner dose 2 µM) | 112% |
| CCCS(=O)(=O)Nc1ccc(F)c(C(=O)c2c[nH]c3ncc(Cl)cc23)c1F + O=C(Oc1ccc([N+](=O)[O-])cc1)N1CCC(C(O)(c2ccc3c(c2)OCO3)c2ccc3c(c2)OCO3)CC1 [JZL184] (first compound 0.08 µM, partner dose 1 µM) | 103% |
| CCCCCCCCc1ccc(CCC(N)(CO)CO)cc1 [fingolimod] + O=C(Oc1ccc([N+](=O)[O-])cc1)N1CCC(C(O)(c2ccc3c(c2)OCO3)c2ccc3c(c2)OCO3)CC1 [JZL184] (first compound 2 µM, partner dose 1 µM) | 110% |
| Cc1cn(-c2cc(NC(=O)c3ccc(C)c(Nc4nccc(-c5cccnc5)n4)c3)cc(C(F)(F)F)c2)cn1 [nilotinib] + O=C(Oc1ccc([N+](=O)[O-])cc1)N1CCC(C(O)(c2ccc3c(c2)OCO3)c2ccc3c(c2)OCO3)CC1 [JZL184] (first compound 0.2 µM, partner dose 1 µM) | 102% |
| CN(c1ncccc1CNc1nc(Nc2ccc3c(c2)CC(=O)N3)ncc1C(F)(F)F)S(C)(=O)=O + Cc1cc(SCc2sc(-c3ccc(C(F)(F)F)c(F)c3)nc2C)ccc1OCC(=O)O [GW0742] (first compound 0.08 µM, partner dose 2 µM) | 117% |
| C[C@@H](Oc1cc(-c2cnn(C3CCNCC3)c2)cnc1N)c1c(Cl)ccc(F)c1Cl [Crizotinib] + Cc1cc(SCc2sc(-c3ccc(C(F)(F)F)c(F)c3)nc2C)ccc1OCC(=O)O [GW0742] (first compound 0.2 µM, partner dose 2 µM) | 104% |
| O=c1[nH]nc(Sc2ncc([N+](=O)[O-])s2)n1-c1ccc2c(c1)OCCO2 + Cc1cc(SCc2sc(-c3ccc(C(F)(F)F)c(F)c3)nc2C)ccc1OCC(=O)O [GW0742] (first compound 0.2 µM, partner dose 2 µM) | 139% |
| CC[C@]1(O)C[C@H]2CN(CCc3c([nH]c4ccccc34)[C@@](C(=O)OC)(c3cc4c(cc3OC)N(C=O)[C@H]3[C@@](O)(C(=O)OC)[C@H](OC(C)=O)[C@]5(CC)C=CCN6CC[C@]43[C@@H]65)C2)C1 [vincristine] + O=C(Oc1ccc([N+](=O)[O-])cc1)N1CCC(C(O)(c2ccc3c(c2)OCO3)c2ccc3c(c2)OCO3)CC1 [JZL184] (first compound 0.0001 µM, partner dose 1 µM) | 108% |
| CC(=O)c1c(C)c2cnc(Nc3ccc(N4CCNCC4)cn3)nc2n(C2CCCC2)c1=O [palbociclib] + C/C(O)=C(\C#N)C(=O)Nc1cc(Br)ccc1Br [LFM-A13] (first compound 0.04 µM, partner dose 2 µM) | 90.3% |
| CN(c1ncccc1CNc1nc(Nc2ccc3c(c2)CC(=O)N3)ncc1C(F)(F)F)S(C)(=O)=O + C/C(O)=C(\C#N)C(=O)Nc1cc(Br)ccc1Br [LFM-A13] (first compound 0.08 µM, partner dose 2 µM) | 88.4% |
| O=C(Nc1cc(C(F)(F)F)cc(C(F)(F)F)c1)c1cc(Cl)ccc1O + C/C(O)=C(\C#N)C(=O)Nc1cc(Br)ccc1Br [LFM-A13] (first compound 0.016 µM, partner dose 2 µM) | 110% |
| N#CC[C@H](C1CCCC1)n1cc(-c2ncnc3[nH]ccc23)cn1 [ruxolitinib] + C/C(O)=C(\C#N)C(=O)Nc1cc(Br)ccc1Br [LFM-A13] (first compound 1 µM, partner dose 2 µM) | 136% |
| O=C(/C=C/c1cccnc1)NCCCCC1CCN(C(=O)c2ccccc2)CC1 + C/C(O)=C(\C#N)C(=O)Nc1cc(Br)ccc1Br [LFM-A13] (first compound 0.01 µM, partner dose 2 µM) | 74.6% |
